*1 amine or outer side, *2 acyl side, *3 side chain or, on linkers, in order; H or OH if unused. Where a SMILES comes first, the peptide text is derived from it. [ ]: non-standard residue; d: D form. The star is where a group is joined. ξ: configuration not given here. Benzoyl(2-COOH-4,5-Cl2) = O=C(O)c1cc(Cl)c(Cl)cc1C(=O)*; ξ(3-Amino-2-oxopentanoyl) = CCC(N[*:1])C(=O)C(=O)[*:2]; ξLeu(ψCOCO) = CC(C)CC(N[*:1])C(=O)C(=O)[*:2]; Benzoyl(2-NO2) = O=C(c1ccccc1[N+](=O)[O-])*; Benzoyl(3-COOH) = O=C(O)c1cccc(C(=O)*)c1; Benzoyl(2-Ph) = O=C(c1ccccc1-c1ccccc1)*; Benzoyl(2-COOH) = O=C(O)c1ccccc1C(=O)*; ξPhg(3-OMe) = COc1cccc(C(N)C(=O)O)c1; X4 = CCCCC(N[*:1])C(=O)C(=O)[*:2]; Hyp = O=C(O)[C@@H]1C[C@@H](O)CN1; X2 = CCCC(N[*:1])C(=O)C(=O)[*:2]; Aad = N[C@@H](CCCC(=O)O)C(=O)O; dPhg = N[C@@H](C(=O)O)c1ccccc1; Chg = N[C@H](C(=O)O)C1CCCCC1; Phg = N[C@H](C(=O)O)c1ccccc1; Tle = CC(C)(C)[C@H](N)C(=O)O; ξChg = NC(C(=O)O)C1CCCCC1; ξPhg = NC(C(=O)O)c1ccccc1; ξNle = CCCCC(N)C(=O)O; Bn = c1ccc(C*)cc1; OtBu = CC(C)(C)O*; tBu = CC(C)(C)*; MEM = COCCOC*

The record followed here is patent US7592316B2, “Peptides as NS3-serine protease inhibitors of hepatitis C virus” (Schering Corporation, priority 2000, dated 2009).

The target in this experiment is HCV NS3/NS4A protease (strain 1a) (Hepatitis C virus genotype 1a, UniProt P27958). Briefly: biochemical. Conditions: Compounds prepared by Solid Phase Synthesis, Table 3; read-out: Ki* CLASS.
Consider `CCCC(NC(=O)[C@@H]1C[C@@H](OC(C)(C)C)CN1C(=O)[C@@H](NC(=O)c1ccccc1C(=O)O)C1CCCCC1)C(=O)C(=O)NCC(=O)NC(C(N)=O)c1cccc(OC)c1` (stereo partly shown) ({Benzoyl(2-COOH)}-[Chg][Hyp](tBu)[X2]G[ξPhg(3-OMe)]-NH2), for which the Ki lay in the range of 101 to 1000 nM. For `CCC(NC(=O)[C@@H]1C[C@@H](OC(C)(C)C)CN1C(=O)[C@@H](NC(=O)c1ccccc1C(=O)O)C1CCCCC1)C(=O)C(=O)NCC(=O)N[C@H](C(N)=O)c1ccccc1` (stereo partly shown) ({Benzoyl(2-COOH)}-[Chg][Hyp](tBu)[ξ(3-Amino-2-oxopentanoyl)]G[Phg]-NH2), the inhibition constant (Ki) lay in the range of 101 to 1000 nM. For `CC(C)CC(NC(=O)[C@@H]1C[C@@H](OC(C)(C)C)CN1C(=O)[C@@H](NC(=O)c1ccccc1C(=O)O)C1CCCCC1)C(=O)C(=O)NCC(=O)N[C@H](C(N)=O)c1ccccc1` (stereo partly shown) ({Benzoyl(2-COOH)}-[Chg][Hyp](tBu)[ξLeu(ψCOCO)]G[Phg]-NH2), the Ki was above 1000 nM. To `CCCC(NC(=O)[C@@H]1C[C@@H](OC(C)(C)C)CN1C(=O)[C@@H](NC(=O)c1ccccc1C(=O)O)C(C)(C)C)C(=O)C(=O)NCC(=O)N[C@H](C(N)=O)c1ccccc1` (stereo partly shown) ({Benzoyl(2-COOH)}-[Tle][Hyp](tBu)[X2]G[Phg]-NH2) belongs 101 to 1000 nM. Regarding `CCCC(NC(=O)[C@@H]1C[C@@H](OCc2ccccc2)CN1C(=O)C(NC(=O)c1ccccc1C(=O)O)C1CCCCC1)C(=O)C(=O)NCC(=O)N[C@@H](C(N)=O)c1ccccc1` (stereo partly shown) ({Benzoyl(2-COOH)}-[ξChg][Hyp](Bn)[X2]G[dPhg]-NH2), the inhibition constant Ki lay within 101 to 1000 nM.

As for `CCCC(NC(=O)[C@@H]1C[C@@H](OCc2ccccc2)CN1C(=O)C(NC(=O)c1ccccc1C(=O)O)C1CCCCC1)C(=O)C(=O)NCC(=O)NC(C(N)=O)c1ccccc1` (stereo partly shown) ({Benzoyl(2-COOH)}-[ξChg][Hyp](Bn)[X2]G[ξPhg]-NH2), the Ki fell in the range of 101 to 1000 nM.

For `CCCC(NC(=O)[C@@H]1C[C@@H](OCc2ccccc2)CN1C(=O)C(NC(=O)c1ccccc1C(=O)O)C1CCCCC1)C(=O)C(=O)NCC(=O)NC(C(=O)O)c1ccccc1` (stereo partly shown) ({Benzoyl(2-COOH)}-[ξChg][Hyp](Bn)[X2]G[ξPhg]-OH), the inhibitory constant (Ki) lay within 1 to 100 nM. Consider `CCCCC(NC(=O)[C@@H]1C[C@@H](OCc2ccccc2)CN1C(=O)C(NC(=O)c1ccccc1C(=O)O)C1CCCCC1)C(=O)C(=O)NCC(=O)NC(C(N)=O)c1ccccc1` (stereo partly shown) ({Benzoyl(2-COOH)}-[ξChg][Hyp](Bn)[X4]G[ξPhg]-NH2), for which the Ki lay within 101 to 1000 nM. As to `CCCCC(NC(=O)CNC(=O)C(=O)C(CCC)NC(=O)[C@@H]1C[C@@H](OCOCCOC)CN1C(=O)C(NC(=O)c1ccccc1C(=O)O)C1CCCCC1)C(N)=O` (stereo partly shown) ({Benzoyl(2-COOH)}-[ξChg][Hyp](MEM)[X2]G[ξNle]-NH2), the Ki was 101 to 1000 nM. With `CCCC(NC(=O)[C@@H]1C[C@@H](OCc2ccccc2)CN1C(=O)C(NC(=O)c1cc(Cl)c(Cl)cc1C(=O)O)C1CCCCC1)C(=O)C(=O)NCC(=O)N[C@@H](C(N)=O)c1ccccc1` (stereo partly shown) ({Benzoyl(2-COOH-4,5-Cl2)}-[ξChg][Hyp](Bn)[X2]G[dPhg]-NH2), the Ki is above 1000 nM. For `CCCC(NC(=O)[C@@H]1C[C@@H](OCc2ccccc2)CN1C(=O)C(NC(=O)c1ccccc1[N+](=O)[O-])C1CCCCC1)C(=O)C(=O)NCC(=O)NC(C(N)=O)c1ccccc1` (stereo partly shown) ({Benzoyl(2-NO2)}-[ξChg][Hyp](Bn)[X2]G[ξPhg]-NH2), the inhibition constant Ki lay within 1 to 100 nM.

As to `CCCC(NC(=O)[C@@H]1C[C@@H](OCc2ccccc2)CN1C(=O)C(NC(=O)c1ccccc1[N+](=O)[O-])C1CCCCC1)C(=O)C(=O)NCC(=O)NC(C(=O)O)c1ccccc1` (stereo partly shown) ({Benzoyl(2-NO2)}-[ξChg][Hyp](Bn)[X2]G[ξPhg]-OH), the inhibition constant (Ki) was 1 to 100 nM. Consider `CCCCC(NC(=O)[C@@H]1C[C@@H](OCc2ccccc2)CN1C(=O)C(NC(=O)c1ccccc1[N+](=O)[O-])C1CCCCC1)C(=O)C(=O)NCC(=O)NC(C(N)=O)c1ccccc1` (stereo partly shown) ({Benzoyl(2-NO2)}-[ξChg][Hyp](Bn)[X4]G[ξPhg]-NH2), for which the inhibition constant (Ki) was 101 to 1000 nM.

As to `CCCCC(NC(=O)[C@@H]1C[C@@H](OCc2ccccc2)CN1C(=O)C(NC(=O)c1ccccc1-c1ccccc1)C1CCCCC1)C(=O)C(=O)NCC(=O)NC(C(N)=O)c1ccccc1` (stereo partly shown) ({Benzoyl(2-Ph)}-[ξChg][Hyp](Bn)[X4]G[ξPhg]-NH2), the Ki was above 1000 nM. Consider `CCCC(NC(=O)[C@@H]1C[C@@H](OCc2ccccc2)CN1C(=O)[C@H](CCCC(=O)OC(C)(C)C)NC(=O)c1cccc(C(=O)O)c1)C(=O)C(=O)NCC(=O)N[C@H](C(N)=O)c1ccccc1` (stereo partly shown) ({Benzoyl(3-COOH)}-[Aad](OtBu)[Hyp](Bn)[X2]G[Phg]-NH2), for which the Ki is above 1000 nM. For the molecule `CCCC(NC(=O)[C@@H]1C[C@@H](OCc2ccccc2)CN1C(=O)[C@H](CCCC(=O)O)NC(=O)c1cccc(C(=O)O)c1)C(=O)C(=O)NCC(=O)N[C@H](C(N)=O)c1ccccc1` (stereo partly shown) ({Benzoyl(3-COOH)}-[Aad][Hyp](Bn)[X2]G[Phg]-NH2), the Ki was above 1000 nM.

The term Ki denotes the dissociation constant of the complex between target and ligand, obtained from inhibition or displacement.
